Test results as given in PubChem BioAssay AID1508642 (National Center for Advancing Translational Sciences (NCATS), 2021).
Out of some 43,000 compounds screened, about 200 (0.47%) were called active. About 12% were inconclusive and are not listed. Calls come from the whole dose curve; as a rule, active = well fitted cell-killing curve with a large enough effect; inconclusive = small, poorly fitted or top-dose-only effect, or effect the other way; inactive = flat fitted curve, though single readings scatter. The list shows a part of the results.

Assay: Cell viability qHTS assay in S16 Pmp22-F2sN cells; note: nearly all actives have a fitted effect of over 65% in size
Conditions: S16 Pmp22-F2sN Schwann cells (luciferase reporters placed in the Pmp22 gene) viability, CellTiter-Glo, 24 h; series mostly up to 57.5 µM; activity change, negative = cytotoxicity: at the top concentration
Summary of the method: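 Rat S16 Schwann reporter line, 24 h treatment with library compounds delivered at 23 nL per well. Cell viability by CellTiter-Glo luminescence.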
% is set by controls: 0 for no effect and ±100 for the full control effect.

| SMILES | activity change, negative = cytotoxicity |
| --- | --- |
| O=C1CN(C(=O)c2ccc(S(=O)(=O)N3CCCC3)cc2)C(c2ccc(F)cc2)c2cc(F)ccc2N1 (stereo unspecified) | inactive: -18.2% |
| CCN(c1ccccc1)S(=O)(=O)c1nnc(NC(=O)C(C)Oc2ccccc2)s1 (stereo unspecified) | inactive: -27.4% |
| CCOC(=O)Cc1ccc(NC(=O)N2CCC(CN3CCC(C)CC3)CC2)cc1 | inactive: 2.53% |
| COc1ccc(N(C(=O)c2ccc(C)cc2)S(=O)(=O)c2ccc(Cl)cc2)cc1 | inactive: -18.9% |
| CCc1ccc(NC(=O)CN(c2ccc(C)cc2)S(=O)(=O)c2c(C)nn(C)c2C)cc1 | inactive: 0.813% |
| COCCCNC(=O)N1CCN(c2nnc(C)c3c(C)n(-c4ccc(Cl)cc4)nc23)CC1 | inactive: 13.2% |
| COc1ccc(CCNC(=O)CCc2c(C)nc3c(-c4ccc(F)cc4)c(C)nn3c2C)cc1OC | inactive: 3.57% |
| Cc1oc2ncn(C)c(=O)c2c1C(=O)N1CCN(c2ccc(Cl)cc2)CC1 | inactive: -21.5% |
| COc1ccc(-c2c(C)nn3c(C(F)(F)F)cc(C)nc23)cc1OC | inactive: 2.17% |
| COc1cccc(CNCCCSc2nnnn2C)c1 | inactive: 4.32% |
| Cc1ccccc1CN1C(=O)c2ccccc2S(=O)c2ccc(C(=O)NCc3ccccc3)cc21 (stereo unspecified) | inactive: -10.9% |
| CCOc1cccc(CC(=O)N2CCc3c([nH]c4ccccc34)C2c2ccc(OC)cc2)c1OCC (stereo unspecified) | inactive: -7.21% |
| COc1ccc(Cn2c(C(=O)O)c(CNCCc3cccs3)c3ccc(OC)cc32)cc1 | inactive: 0.5% |
| CCCc1nn2c(=O)cc(COC(=O)c3ccccc3NC(=O)C3CCCCC3)nc2s1 | inactive: 1.81% |
| Cc1ccc(NC(=O)C2CCN(S(=O)(=O)c3cccs3)CC2)cc1 | inactive: -1.91% |
| COC(=O)c1c(C)sc(-c2c(-c3ccc(F)cc3)[nH]c3[nH]c(=O)[nH]c(=O)c23)c1O | inactive: 13.4% |
| COc1ccc(C(=O)NCC(c2cccnc2)N2CCN(c3ccccc3F)CC2)cc1OC (stereo unspecified) | inactive: -4.39% |
| Clc1ccc(N2CCN(Cc3nnc(-c4ccc5c(c4)OCO5)o3)CC2)cc1 | inactive: 6.43% |
| COc1ccc(-c2cccc(NS(=O)(=O)c3cccs3)c2)nn1 | inactive: 8.92% |
| CCOc1ccccc1CNC(=O)CCCn1c(=O)c2cccn2c2cccnc21 | inactive: 1.48% |
| Cc1ccc2oc(-c3cccc(NC(=O)c4cccc5c(Br)cccc45)c3)nc2c1 | inactive: -4.57% |
| Cc1ccc2onc(CC(=O)N3CCN(c4ccccc4F)CC3)c2c1 | inactive: -2.47% |
| CC(=O)N1c2ccccc2CC1C(=O)N1CCN(c2cccc(C)c2C)CC1 (stereo unspecified) | inactive: 0.553% |
| COc1ccc(-c2cc(C)no2)cc1S(=O)(=O)N1CCN(c2ccc(C(C)=O)cc2)CC1 | inactive: 2.35% |
| O=C(CCCn1c(=O)c2cccn2c2ccccc21)Nc1cccc(Cl)c1 | inactive: -1.29% |
| COc1ccc(NC(=O)C2=C(C)Nc3c(C(=O)Nc4ccc(C)cc4)cnn3C2c2cccc(Cl)c2)cc1 (stereo unspecified) | inactive: -6.72% |
